# Test results taken from publication PMC4336329 (PLoS ONE, 2015).
# The whole screen tested about 310,000 compounds, of which about 2,200 (0.71%) showed an effect of 50% or more. The effect is printed as a negative number. The list shows a part of the results.
# Target: human ether-à-go-go-related gene (hERG) potassium channel (human, UniProt Q12809)
# Test: primary screen, population patch clamp on CHO cells stably expressing hERG
# human ether-à-go-go-related gene (hERG) potassium channel, sequence (Q12809 whole entry, looked up): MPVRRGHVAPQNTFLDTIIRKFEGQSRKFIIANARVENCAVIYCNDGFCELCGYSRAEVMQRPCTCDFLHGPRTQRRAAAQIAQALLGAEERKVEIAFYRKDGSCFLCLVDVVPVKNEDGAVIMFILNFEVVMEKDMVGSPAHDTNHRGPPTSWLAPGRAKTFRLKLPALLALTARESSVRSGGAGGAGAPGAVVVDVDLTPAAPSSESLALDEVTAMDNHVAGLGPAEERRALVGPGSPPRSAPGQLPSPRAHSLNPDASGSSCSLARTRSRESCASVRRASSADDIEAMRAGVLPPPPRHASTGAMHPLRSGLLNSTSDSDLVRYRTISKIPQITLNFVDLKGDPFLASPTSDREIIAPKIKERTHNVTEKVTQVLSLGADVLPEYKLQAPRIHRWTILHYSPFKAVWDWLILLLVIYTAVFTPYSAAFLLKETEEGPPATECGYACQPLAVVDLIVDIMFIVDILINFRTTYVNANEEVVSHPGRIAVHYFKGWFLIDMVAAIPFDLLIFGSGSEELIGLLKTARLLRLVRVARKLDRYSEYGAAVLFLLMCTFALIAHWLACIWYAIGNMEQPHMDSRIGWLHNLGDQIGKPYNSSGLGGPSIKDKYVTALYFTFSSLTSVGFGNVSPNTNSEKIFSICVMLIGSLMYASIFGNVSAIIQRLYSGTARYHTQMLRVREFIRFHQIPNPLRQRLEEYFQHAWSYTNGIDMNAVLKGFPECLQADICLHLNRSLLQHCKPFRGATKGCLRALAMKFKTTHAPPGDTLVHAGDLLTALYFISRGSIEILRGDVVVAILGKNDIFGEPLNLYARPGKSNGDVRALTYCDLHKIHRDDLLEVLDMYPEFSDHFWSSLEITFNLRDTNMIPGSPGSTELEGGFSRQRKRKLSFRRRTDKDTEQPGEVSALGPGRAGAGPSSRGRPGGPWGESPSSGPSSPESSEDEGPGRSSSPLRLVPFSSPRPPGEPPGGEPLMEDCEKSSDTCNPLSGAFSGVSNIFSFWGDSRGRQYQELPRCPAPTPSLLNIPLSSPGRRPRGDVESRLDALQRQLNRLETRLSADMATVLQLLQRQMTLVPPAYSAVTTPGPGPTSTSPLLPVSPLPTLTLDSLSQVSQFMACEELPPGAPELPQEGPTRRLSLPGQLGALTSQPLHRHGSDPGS
row,SMILES,"hERG current change (%, negative = inhibition) at 1uM [%]"
1,C/C=C/c1ccc(OCCCCN2CCC(C)CC2)c(OC)c1,-46.5
2,COc1cccc(C2Nc3ccccc3NC3=C2C(=O)CC(C)(C)C3)c1OC (centres unmarked),9.22
3,COc1ccc(-c2cc(C(=O)Nc3cccnc3Cl)no2)cc1,13.3
4,Cc1cccc(NC(=O)c2ccc3ccccc3n2)n1,6.32
5,COC(=O)c1sc2ccccc2c1NC(=O)c1ccc(S(=O)(=O)N2CCCC(C)C2)cc1 (centres unmarked),1.19
6,COc1cccc(NC(=O)CN(C)C(=O)C23CC4CC(CC(Cl)(C4)C2)C3)c1,6.83
7,COc1cnn(-c2cccc(C)c2)c(=O)c1Cl,12.4
8,CCCCNc1c(-c2ccc(SC3CCCCC3)c(OC)c2)nc2ccc(Cl)cn12.O=C(O)C(F)(F)F,7.4
9,CN(Cc1ccccc1)S(=O)(=O)c1ccc2c(c1)n(C)c(=O)n2C,9.04
10,CC(C)C(c1nnnn1Cc1ccccc1)N1CCN(Cc2ccc3c(c2)OCO3)CC1 (centres unmarked),-6.86
11,CC(=O)Nc1c(F)c(F)c(F)c(F)c1F,9.7
12,CC1Oc2ccccc2N(CC(=O)N2CCCCCC2)C1=O (centres unmarked),14.2
13,Cn1nnnc1Sc1ncnc2scc(-c3ccccc3Cl)c12,12.7
14,C(=N/N1CCN(c2ccccc2)CC1)/c1ccncc1,5.3
15,OC(CNCc1ccccc1)COc1ccccc1 (centres unmarked),5.36
16,CN1CCN(C(CNS(=O)(=O)c2ccc(Cl)cc2)c2cccnc2)CC1 (centres unmarked),-5.16
17,CCCc1cc(C(=O)N/N=C/c2ccc(C)o2)c2ccccc2n1,7.09
18,Cc1nn(CC(=O)NCCCN2CCC(Cc3ccccc3)CC2)c(=O)c2cc(-c3ccccc3)nn12,-19.3
19,Cc1ccc(C(=O)Nc2ccncc2)c(C)c1,14.9
20,CC(C)(C)OC(=O)NC(CC(=O)OCc1ccccc1)C(=O)O (centres unmarked),11.6
21,CN(C)CCN(C(=O)c1ccc(C(=O)c2ccccc2)cc1)c1nc2cc3c(cc2s1)OCCO3.Cl,6.13
22,CC(=O)Nc1ccc(S(=O)(=O)NCC(=O)NNC(=O)COc2ccccc2Cl)cc1,-2.81

row,SMILES,"hERG current change (%, negative = inhibition) at 1uM [%]"
1,N#Cc1cnn2cc(CCN3CCOCC3)c(-c3ccc(F)cc3)nc12,-0.5
2,COCCN(Cc1nc2ccccc2c(=O)[nH]1)C(=O)c1cccc(S(=O)(=O)N2CCCC2)c1,3.61
3,CCOC(=O)C1=C(C)N(C)C(=O)NC1c1c(C)nn(-c2ccc(C)cc2)c1Cl (centres unmarked),10.9
4,S=c1[nH]nc([C@@H]2C[C@H]2c2ccccc2)n1-c1ccccc1,14
5,COc1ccc(N=Nc2nc3ccc(Br)cc3n2C)cc1,19.6
6,CN(C)CCN(CC1CCCN(Cc2ccccc2F)C1)C(=O)c1ccc(Cl)cc1 (centres unmarked),13.4
7,CCOc1ccc2nc(NC(=O)C(CCSC)NS(=O)(=O)c3cccs3)sc2c1 (centres unmarked),5.25
8,CCOC(=O)C(=CNc1nc(-c2ccc3ccccc3c2)cs1)C(=O)OCC,11.6
9,C/C(=N\NC(=O)Cc1c[nH]c2ccccc12)c1ccc2ccccc2c1,8.01
10,O=C(Cn1c(=O)n(CC2CCCO2)c(=O)c2ccccc21)N1CCN(c2ccccc2)CC1 (centres unmarked),-4.29
11,CCCCOc1ccc(C(=O)OCC(=O)Nc2cc(C)c(C)cc2[N+](=O)[O-])cc1,6.48
12,NC(=O)C1=C[C@@H](C2CCCCC2)C[C@@H](OCCCCO)O1,14.2
13,O=C(N/N=C/c1ccc([N+](=O)[O-])o1)c1ccccc1-n1cccc1,1.53
14,CC1(C)CC(=O)C=C(NCc2ccc(Cl)c(Cl)c2)C1,1.69
15,Cc1nnc(SCC(=O)NCCc2ccccc2)s1,13.9
16,COC(=O)c1cn(CCC#N)nc1-c1ccc2ccccc2c1,5.43
17,CC(=O)N1c2ccc(S(=O)(=O)N3CCCC(C(=O)Nc4cccc(F)c4)C3)cc2CC1C (centres unmarked),1.69
18,NC(=O)[C@@H]1CCCN1Cc1c(C(=O)N2CCc3ccccc3C2)nc2ccc(Cl)cn12,8.27
19,CCCC(=O)c1cc2ccccc2oc1=O,10.3
20,O=C(CSc1nnc(CNC(=O)c2ccc(F)cc2)o1)Nc1ccc2c(c1)OCCO2,16.9
21,O=C(O)CC(NC(=O)C12CC3CC(CC(C3)C1)C2)c1cccc([N+](=O)[O-])c1 (centres unmarked),6.45
22,COc1ccc(O)c(C(=O)c2coc(=N)c(C(=O)Nc3ccc(SC(F)F)cc3)c2)c1,-15.5
